According to the supplement of paper PMC11417369:
The other results are listed elsewhere or left out.

Tested on: PfAP2-HC AP2 domain (GST-tagged)
Experiment: gcPBM binding intensity (ln(normalized median fluorescence intensity)); higher = stronger DNA binding
How it was run: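 For binding intensity, the highest Masliner-normalised natural-log median intensity across replicate spots of either probe orientation was taken. Protein bound to the array was stained with Alexa488 anti-GST antibody and scanned at 488 nm. The protein, GST-tagged P. falciparum DNA-binding domains from E. coli at about 25 μg on average, had been applied for 1 h to an Agilent 4 × 180k array of primer-extended double-stranded 36-bp intergenic genomic probes and negative controls.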

Sequence | gcPBM binding intensity (ln)
TTTTTCTTTGAATAAATACACACGAGAAATGAAAGT [CACACA_site1688] | 9.7
CATACCTATAGACACACACACACACGCACGCACAAA [CACACA_site6374] | 10.4
TTTTGTAATGCTTTTTTTTTTTTTTTTTTTTTTTTT [CACACA_negctrl_site932] | 9.2
ACATAGATCATAGGTTGTACGAAGGTATCCTTTATT [XGTACX_site694] | 9.65
TCATATATATATATATGTACATATTTATGTATGTAT [XGTACX_site6291] | 9.68
ACTTTTTGAATGTTTGCACACAAATCTCATAATTTT [CACACA_site358] | 10.1
TTTTTATAAATAATAAGGCGTATGAAAATAAAATAA [TGCATGCA_negctrl_site421] | 9.47
TCAAAATATCCAAAAGAATAAAGAAAAAAAAAAAGA [CACACA_negctrl_site1377] | 9.6
ATATAACATTGTTTTGCATGTAAATATTCAATTTTT [TGCATGCA_site758] | 9.64
TCAAATTTAATCATAACACACATTCACATATGAATT [CACACA_site3199] | 9.69
ATATAATGAAGTGAATGTACATATAAAATGTAAAAA [XGTACX_site8052] | 9.97
AAAAAAAAAAAACACACACACAAATACAAATACATA [CACACA_site415] | 11.5
GAAACGTTTTTTCAGTGTACATTTTACCGATTTGTA [XGTACX_site8249] | 9.71
TAGTATAATATATATTGTACGTTTTAATTGTTTATA [XGTACX_site2731] | 9.56
TAAAGCAACTGAAACACACAAATTTTTTTTTTTTTT [CACACA_site7499] | 9.88
AAACTGAAAAAAATATGTACATATTTATATCTTATA [XGTACX_site3011] | 9.61
ATTGTATAAAAATGTACATGCAATAAATTTAGTTCT [TGCATGCA_site675] | 9.68
TTATTAACGGAACTCTGTACTTAAAAAATTTTAGAA [XGTACX_site8787] | 9.3
AAAAAAACAGAAAACACACAAATTATCTTATAATTA [CACACA_site6282] | 9.8
TATATAAGAATATATACACACATATCTGTATTTATA [CACACA_site5231] | 9.73
ATTGTTTCATTAAAATGTACATAAATTGTGTATAAT [XGTACX_site5341] | 9.59
GAGTTTATATTTTAAGCATGCATATGTTATTATTAT [TGCATGCA_site1049] | 9.89

Sequence | gcPBM binding intensity (ln)
TATATCAAAAACGAGACATGCATGCCGTTCATTTTG [TGCATGCA_site211] | 9.52
TCTTTTTTGAAGCATTTTGTTTTTTAATAAGTAAAA [TGCATGCA_negctrl_site247] | 9.35
TATATATATATTTAATGTACATGTTTATTTTATCAT [XGTACX_site499] | 9.8
AATAAAATAAAAAAAAATAAAAAAAAAATAAAAAAT [XGTACX_negctrl_site245] | 9.92
TATTTTTCTTTTTAAGTGCATGGTTGTATAAAATTT [GTGCAC_site9480] | 9.59
TTTATAAAGGGAAAGGTGCAAAAGGTGAAAGTTTTA | 9.68
ACATATATATATATATATATATATATATATAGATAG [CACACA_negctrl_site783] | 9.92
CTTTTTACTTAATACACACACACACTAAAAAAAAAA [CACACA_site6574] | 10.3
ACAAAAAAATATTTATGTACTTATTATATTTATAAT [XGTACX_site2059] | 9.49
AAAACTAAATGTTATTCGCACACGGAATTTATTTAA [CACACA_site9221] | 9.77
ATAAAGAAATTACACACATGCAATGAAAAAAAAAAA [TGCATGCA_site406] | 10
ATATATATTATATATGCATGCCAAATCTTTATAAAC [TGCATGCA_site1042] | 9.64
ATATGTATAAAAATCCGTACATAAGTGTGCGTATAT [XGTACX_site4376] | 9.85
ATAAATAATATGTAAACACACAAAAAATAAAAATGA [CACACA_site1178] | 10.3
ATGTTTGAGCCTAAGGTGCATATAAAAATATATGTG [GTGCAC_site9690] | 9.6
TACTAAGAAGTATTTACACACCAACAAGGCGAAAAA [CACACA_site2944] | 9.78
AAAAAAAAAAGAAATTGTACTTTTTGTTTAATAATT [XGTACX_site4681] | 9.41
ATATTTTGTTATGAAACACACACATATATATATATA [CACACA_site9216] | 9.9
TTGAGCCTACAAAAGGGTACACATTCAATTTATTTT [XGTACX_site6570] | 9.65
TTTTGAATATGGATCTTATATATATTAAATAAATAA [CACACA_negctrl_site344] | 9.09
ATTCCAGAAATATATTAACAAGGAAAATATAAAAAT [CACACA_negctrl_site343] | 9.54
ATTATATACAAATAAAGTACATAAACAAATTCAGAA [XGTACX_site1187] | 10
